Source: ChEMBL document CHEMBL1201862, “PubChem BioAssay data set” (2004)
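96-well plates; 48 h exposure; 5 concentrations. Endpoints by linear interpolation between flanking doses. Not reached: highest tested concentration assigned. GI50: concentration for 50% inhibition of growth.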 Calls of active or inactive are those of the source. No stated cut-off is given here; in the data, active = GI50 up to about 1.1 µM and inactive = higher.

What follows are molecules tested on NCI-H322M (assay: inhibition of tumour cell growth, NCI panel, 48 h).

How did the GI50 turn out when `CC1(C)CC(=O)C2=C(C1)NC1=C(C(=O)CC(C)(C)C1)C2c1ccc([N+](=O)[O-])cc1` was run?
The GI50 was inactive: > 100 µM.

`[O-][n+]1onc2c1-c1nonc1CC2` was tested. Which GI50 did it give?
Its GI50 is inactive: 22.2 µM.

How did the GI50 turn out when `C1=c2ccccc2=C2C(=C(c3ccccc3)C(c3ccccc3)=NN2c2ccccc2)S1` was run?
The GI50 was inactive: > 100 µM.

For `CC[C@@]1(O)CC(OC2CC(N3CCOCC3)C(O)C(C)O2)c2c(O)c3c(c(O)c2[C@H]1O)C(=O)c1cccc(O)c1C3=O` (stereo not given in full), which GI50 is on record?
Its GI50 is active: 0.205 µM.

With `COc1cc2c(cc1O)CCN(C)[C@H]2Cc1ccc(Oc2c(O)c(OC)cc3c2C[C@H]2c4c(c(OC)c(OC)c(OC)c4-3)CCN2C)cc1` [THALIFABERIDINE] as the molecule, how does the GI50 read?
The GI50 was inactive: 5.09 µM.

For `CNC(=S)N/N=C(\C)c1cc(OC)ccc1O`, which GI50 is on record?
Its GI50 is inactive: > 100 µM.

For `CCN(CC)CCSc1c2ccccc2nc2cc(NCC(=O)Nc3ccccc3-c3ccccc3NC(=O)CNc3ccc4c(SCCN(CC)CC)c5ccccc5nc4c3)ccc12`, which GI50 is on record?
The GI50 was inactive: > 85.1 µM.

How did the GI50 turn out when `COc1ccc(C2N(NC(=O)c3ccncc3)C(=O)CS2(=O)=O)cc1F` (stereo not given) was run?
The GI50 was inactive: > 100 µM.

For `C=CCC1(CC)C(=O)NC(=O)NC1=O` [ETALLOBARBITAL], which GI50 is on record?
Its GI50 is inactive: > 100 µM.

How did the GI50 turn out when `Clc1sc(Cl)c2c1[C@H](Br)C[C@@H]2Cl` was run?
The GI50 was inactive: > 100 µM.

Which GI50 does the source give for `COc1ccc(Nc2nnc(-c3nsc4ccccc34)s2)cc1` here?
The GI50 was inactive: 11.6 µM.

For `COc1ccc(OC)c(NCC(=O)Nn2cnc3ccc(S(=O)(=O)Nc4cc(OC)ccc4OC)cc3c2=O)c1`, which GI50 is on record?
Its GI50 is inactive: > 100 µM.

`Nc1ncnc2c1ncn2C1OC(CSC(F)(F)F)C(O)C1O` (stereo not given) was tested. Which GI50 did it give?
Its GI50 is inactive: > 100 µM.

How did the GI50 turn out when `COc1ccc(C2CC(c3ccc(NS(=O)(=O)c4cc([N+](=O)[O-])ccc4C)cc3)=NN2S(=O)(=O)c2cc([N+](=O)[O-])ccc2C)cc1` (stereo not given) was run?
The GI50 was inactive: 50.2 µM.

`C=C1C(=O)OC2C1C(OC(=O)/C(C)=C/C)CC(O)(CCl)C1C(OC(C)=O)C=C(C)C21O` (stereo not given) was tested. Which GI50 did it give?
Its GI50 is inactive: 25.3 µM.

Which GI50 does the source give for `CN(C)C(=S)/N=c1\ssc(=S)n1Cc1ccncc1` here?
Its GI50 is inactive: 43.6 µM.

`CCOC(=O)C(CCC(N)=O)(CCC(=O)OC)C(=O)OCC` was tested. Which GI50 did it give?
The GI50 was inactive: > 100 µM.

How did the GI50 turn out when `O=C(/C=C(\O)C(=O)O)/C=C(\O)c1ccccc1` was run?
The GI50 was inactive: > 4.65 µM.

`CCCCN(CCCC)CC(C(C)=O)C(c1ccccc1)c1c(O)c2ccccc2oc1=O` (stereo not given) was tested. Which GI50 did it give?
Its GI50 is inactive: > 100 µM.

Which GI50 does the source give for `OC1CC(O)O[C@H](c2ccccc2)C1` (stereo not given in full) here?
Its GI50 is inactive: > 100 µM.

How did the GI50 turn out when `OC(COC(c1ccccc1)(c1ccccc1)c1ccccc1)C(O)CC1SCCS1` (stereo not given) was run?
Its GI50 is inactive: 21 µM.

For `OC1(c2ccccc2)CCN(Cc2c[nH]c3ccccc23)CC1`, which GI50 is on record?
Its GI50 is inactive: 68.9 µM.

`N#Cc1cc([N+](=O)[O-])ccc1NC(=O)/C(=N/N)C(C(=O)c1ccc(Cl)c(Cl)c1)C1OC(=O)c2ccccc21` (stereo not given) was tested. Which GI50 did it give?
Its GI50 is inactive: 58.7 µM.

For `CCOP(=O)(CCCC(O)CNc1nc(N)nc(Cl)c1/N=N/c1ccc(Cl)cc1)OCC` (stereo not given), which GI50 is on record?
Its GI50 is inactive: 14.9 µM.

`CN(C)c1nc(Cl)c2c(-c3ccccc3)c(-c3ccccc3)oc2n1` was tested. Which GI50 did it give?
The GI50 was inactive: > 100 µM.

How did the GI50 turn out when `C=CCNS(=O)(=O)c1ncnc2[nH]cnc12` was run?
Its GI50 is inactive: > 100 µM.

For `CC(=O)NN/C=N/C(C#N)=C(\N)C#N`, which GI50 is on record?
The GI50 was inactive: > 100 µM.

Which GI50 does the source give for `Cc1ccc(C)c(NC(=O)CC/C(=N\NC(=O)c2c(O)ccc3ccccc23)C(C)C(=O)c2ccc(O)cc2)c1` (stereo not given) here?
Its GI50 is inactive: 41.1 µM.

With `CCOC(=O)c1ccc(/N=C2\Sc3nc4ccccc4n3\C2=N\c2ccc(C(=O)OCC)cc2)cc1` as the molecule, how does the GI50 read?
The GI50 was inactive: 26.7 µM.

Which GI50 does the source give for `CC1OC(=O)c2ccccc2NC1=O` (stereo not given) here?
Its GI50 is inactive: > 100 µM.

With `CC(OC(C)(C)C)[C@H](NC(=O)OCc1ccccc1)C(=O)NC(OCc1ccccc1)[C@H]1COC(C)(C)O1` (stereo not given in full) as the molecule, how does the GI50 read?
Its GI50 is inactive: > 10 µM.

`CN(O)C(=O)/C=C/c1ccc(OCc2cccc(Cl)c2)cc1` was tested. Which GI50 did it give?
Its GI50 is inactive: 18.7 µM.

With `Cc1cn(C2CC(n3cc(Cn4ccc(=O)[nH]c4=O)nn3)C(CO)O2)c(=O)[nH]c1=O` (stereo not given) as the molecule, how does the GI50 read?
Its GI50 is inactive: > 100 µM.

For `O=[N+]([O-])/C(Cl)=C(/C(Cl)=C(Cl)Cl)N1CCCCC1`, which GI50 is on record?
Its GI50 is inactive: 15.8 µM.

Which GI50 does the source give for `COC(=O)c1sc2c(Cl)c(Cl)sc2c1Cl` here?
Its GI50 is inactive: > 100 µM.
